Source: PMC5909619
These are yes or no findings as the source states them, for the method shown. In cells and extracts the contact can be indirect. Some results given as binding are weak or reduced against the parent protein; the word gives no strength. Where a sequence is shown, tags or fusion partners need not be part of it. Values belong to the binder of their own block, whether it stands above or below them.

Experiments:
Assay in all cases: co-IP; FLAG-Solo or its deletion mutants co-expressed with β4-YFP fragments in COS-7 cells; lysis buffer with 1% NP-40, 50 mM Tris-HCl pH 7.5, 150 mM NaCl; lysates incubated 2 h at 4°C with an anti-FLAG antibody; immunoblot with anti-FLAG and anti-GFP antibodies
[1] = molecular target: FLAG-tagged Solo-WT (human) (UniProt Q8TER5)
[2] = molecular target: FLAG-Solo (1–329) (human) (UniProt Q8TER5)
[3] = molecular target: FLAG-Solo (1058–1519) (human) (UniProt Q8TER5)
[4] = molecular target: FLAG-Solo (330–1057) (human) (UniProt Q8TER5)

B1: β4 (735–1450)-YFP (domain or fragment, UniProt P16144-2 735-1450)
chain: YCACCKACLALLPCCNRGHMVGFKEDHYMLRENLMASDHLDTPMLRSGNLKGRDVVRWKVTNNMQRPGFATHAASINPTELVPYGLSLRLARLCTENLLKPDTRECAQLRQEVEENLNEVYRQISGVHKLQQTKFRQQPNAGKKQDHTIVDTVLMAPRSAKPALLKLTEKQVEQRAFHDLKVAPGYYTLTADQDARGMVEFQEGVELVDVRVPLFIRPEDDDEKQLLVEAIDVPAGTATLGRRLVNITIIKEQARDVVSFEQPEFSVSRGDQVARIPVIRRVLDGGKSQVSYRTQDGTAQGNRDYIPVEGELLFQPGEAWKELQVKLLELQEVDSLLRGRQVRRFHVQLSNPKFGAHLGQPHSTTIIIRDPDELDRSFTSQMLSSQPPPHGDLGAPQNPNAKAAGSRKIHFNWLPPSGKPMGYRVKYWIQGDSESEAHLLDSKVPSVELTNLYPYCDYEMKVCAYGAQGEGPYSSLVSCRTHQEVPSEPGRLAFNVVSSTVTQLSWAEPAETNGEITAYEVCYGLVNDDNRPIGPMKKVLVDNPKNRMLLIENLRESQPYRYTVKARNGAGWGPEREAIINLATQPKRPMSIPIIPDIPIVDAQSGEDYDSFLMYSDDVLRSPSGSQRPSVSDDTEHLVNGRMDFAFPGSTNSLHRMTTTSAAAYGTHLSPHVPHRVLSTSSTLTRDYNSLTRSEHSHSTTLPRDYSTLTSVSSHD
binding [1]: no binding

B3: β4 (735–1752)-YFP (domain or fragment, UniProt P16144-2 735-1752)
chain: YCACCKACLALLPCCNRGHMVGFKEDHYMLRENLMASDHLDTPMLRSGNLKGRDVVRWKVTNNMQRPGFATHAASINPTELVPYGLSLRLARLCTENLLKPDTRECAQLRQEVEENLNEVYRQISGVHKLQQTKFRQQPNAGKKQDHTIVDTVLMAPRSAKPALLKLTEKQVEQRAFHDLKVAPGYYTLTADQDARGMVEFQEGVELVDVRVPLFIRPEDDDEKQLLVEAIDVPAGTATLGRRLVNITIIKEQARDVVSFEQPEFSVSRGDQVARIPVIRRVLDGGKSQVSYRTQDGTAQGNRDYIPVEGELLFQPGEAWKELQVKLLELQEVDSLLRGRQVRRFHVQLSNPKFGAHLGQPHSTTIIIRDPDELDRSFTSQMLSSQPPPHGDLGAPQNPNAKAAGSRKIHFNWLPPSGKPMGYRVKYWIQGDSESEAHLLDSKVPSVELTNLYPYCDYEMKVCAYGAQGEGPYSSLVSCRTHQEVPSEPGRLAFNVVSSTVTQLSWAEPAETNGEITAYEVCYGLVNDDNRPIGPMKKVLVDNPKNRMLLIENLRESQPYRYTVKARNGAGWGPEREAIINLATQPKRPMSIPIIPDIPIVDAQSGEDYDSFLMYSDDVLRSPSGSQRPSVSDDTEHLVNGRMDFAFPGSTNSLHRMTTTSAAAYGTHLSPHVPHRVLSTSSTLTRDYNSLTRSEHSHSTTLPRDYSTLTSVSSHDSRLTAGVPDTPTRLVFSALGPTSLRVSWQEPRCERPLQGYSVEYQLLNGGELHRLNIPNPAQTSVVVEDLLPNHSYVFRVRAQSQEGWGREREGVITIESQVHPQSPLCPLPGSAFTLSTPSAPGPLVFTALSPDSLQLSWERPRRPNGDIVGYLVTCEMAQGGGPATAFRVDGDSPESRLTVPGLSENVPYKFKVQARTTEGFGPEREGIITIESQDGGPFPQLGSRAGLFQHPLQSEYSSITTTHTSATEPFLVDGLTLGAQHLEAGGSLTRHVTQEFVSRTLTTSGTLSTHMDQQFFQT
binding [1]: binds

B5: β4 (1121–1450)-YFP (domain or fragment, UniProt P16144-2 1121-1450)
chain: PPPHGDLGAPQNPNAKAAGSRKIHFNWLPPSGKPMGYRVKYWIQGDSESEAHLLDSKVPSVELTNLYPYCDYEMKVCAYGAQGEGPYSSLVSCRTHQEVPSEPGRLAFNVVSSTVTQLSWAEPAETNGEITAYEVCYGLVNDDNRPIGPMKKVLVDNPKNRMLLIENLRESQPYRYTVKARNGAGWGPEREAIINLATQPKRPMSIPIIPDIPIVDAQSGEDYDSFLMYSDDVLRSPSGSQRPSVSDDTEHLVNGRMDFAFPGSTNSLHRMTTTSAAAYGTHLSPHVPHRVLSTSSTLTRDYNSLTRSEHSHSTTLPRDYSTLTSVSSHD
binding [1]: no binding

Other lines, results leading:

binding [2]: no binding
binding [3]: no binding
binding [4]: binds
binding [1]: binds
B2: β4 (1451–1752)-YFP (domain or fragment, UniProt P16144-2 1451-1752)
chain: SRLTAGVPDTPTRLVFSALGPTSLRVSWQEPRCERPLQGYSVEYQLLNGGELHRLNIPNPAQTSVVVEDLLPNHSYVFRVRAQSQEGWGREREGVITIESQVHPQSPLCPLPGSAFTLSTPSAPGPLVFTALSPDSLQLSWERPRRPNGDIVGYLVTCEMAQGGGPATAFRVDGDSPESRLTVPGLSENVPYKFKVQARTTEGFGPEREGIITIESQDGGPFPQLGSRAGLFQHPLQSEYSSITTTHTSATEPFLVDGLTLGAQHLEAGGSLTRHVTQEFVSRTLTTSGTLSTHMDQQFFQT

binding [1]: binds
B4: β4 (1121–1752)-YFP (domain or fragment, UniProt P16144-2 1121-1752)
chain: PPPHGDLGAPQNPNAKAAGSRKIHFNWLPPSGKPMGYRVKYWIQGDSESEAHLLDSKVPSVELTNLYPYCDYEMKVCAYGAQGEGPYSSLVSCRTHQEVPSEPGRLAFNVVSSTVTQLSWAEPAETNGEITAYEVCYGLVNDDNRPIGPMKKVLVDNPKNRMLLIENLRESQPYRYTVKARNGAGWGPEREAIINLATQPKRPMSIPIIPDIPIVDAQSGEDYDSFLMYSDDVLRSPSGSQRPSVSDDTEHLVNGRMDFAFPGSTNSLHRMTTTSAAAYGTHLSPHVPHRVLSTSSTLTRDYNSLTRSEHSHSTTLPRDYSTLTSVSSHDSRLTAGVPDTPTRLVFSALGPTSLRVSWQEPRCERPLQGYSVEYQLLNGGELHRLNIPNPAQTSVVVEDLLPNHSYVFRVRAQSQEGWGREREGVITIESQVHPQSPLCPLPGSAFTLSTPSAPGPLVFTALSPDSLQLSWERPRRPNGDIVGYLVTCEMAQGGGPATAFRVDGDSPESRLTVPGLSENVPYKFKVQARTTEGFGPEREGIITIESQDGGPFPQLGSRAGLFQHPLQSEYSSITTTHTSATEPFLVDGLTLGAQHLEAGGSLTRHVTQEFVSRTLTTSGTLSTHMDQQFFQT
